From article PMC4336329 (PLoS ONE, 2015)
The campaign covered roughly 310,000 compounds. About 14,000 (4.5%) showed an effect of 50% or more. The effect is printed as a negative number. This is one part of the list.

molecular target: human ether-à-go-go-related gene (hERG) potassium channel (human, UniProt Q12809); assay: primary screen, population patch clamp on CHO cells stably expressing hERG
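Further: peak tail current of the secondary pulse compared with the same well before compound.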

Sequence of human ether-à-go-go-related gene (hERG) potassium channel (Q12809 whole entry, looked up): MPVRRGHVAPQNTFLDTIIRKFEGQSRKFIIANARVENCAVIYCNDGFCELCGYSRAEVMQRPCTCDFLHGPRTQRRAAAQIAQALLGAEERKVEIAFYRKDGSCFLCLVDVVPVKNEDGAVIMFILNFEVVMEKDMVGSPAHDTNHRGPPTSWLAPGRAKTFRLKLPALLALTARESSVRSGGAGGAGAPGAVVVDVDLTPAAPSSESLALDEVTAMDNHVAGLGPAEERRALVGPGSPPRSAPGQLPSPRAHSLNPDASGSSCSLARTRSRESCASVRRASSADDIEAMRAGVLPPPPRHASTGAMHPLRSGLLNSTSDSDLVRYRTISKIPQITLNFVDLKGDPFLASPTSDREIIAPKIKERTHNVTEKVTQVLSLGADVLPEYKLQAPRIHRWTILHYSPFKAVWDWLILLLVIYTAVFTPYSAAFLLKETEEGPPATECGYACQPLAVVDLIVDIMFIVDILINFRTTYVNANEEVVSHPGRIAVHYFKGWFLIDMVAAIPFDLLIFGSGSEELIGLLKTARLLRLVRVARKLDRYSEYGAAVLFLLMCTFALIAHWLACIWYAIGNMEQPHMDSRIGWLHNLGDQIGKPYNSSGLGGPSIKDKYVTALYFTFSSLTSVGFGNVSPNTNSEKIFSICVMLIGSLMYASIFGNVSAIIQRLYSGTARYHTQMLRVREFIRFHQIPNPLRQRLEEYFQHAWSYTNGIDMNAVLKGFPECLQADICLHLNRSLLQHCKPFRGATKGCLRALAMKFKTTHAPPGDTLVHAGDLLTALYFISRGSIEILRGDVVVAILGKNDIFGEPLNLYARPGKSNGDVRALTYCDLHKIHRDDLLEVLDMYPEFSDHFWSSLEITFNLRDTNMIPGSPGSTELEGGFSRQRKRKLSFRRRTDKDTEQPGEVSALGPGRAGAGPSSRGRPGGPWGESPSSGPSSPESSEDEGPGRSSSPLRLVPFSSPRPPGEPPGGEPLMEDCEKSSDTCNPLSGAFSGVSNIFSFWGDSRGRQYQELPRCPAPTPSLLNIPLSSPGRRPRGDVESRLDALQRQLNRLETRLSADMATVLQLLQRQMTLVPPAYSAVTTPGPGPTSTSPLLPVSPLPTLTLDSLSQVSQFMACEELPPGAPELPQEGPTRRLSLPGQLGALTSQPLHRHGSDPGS

SMILES	hERG current change (%, negative = inhibition) at 10uM [%]
CCCCN(C)C(=O)C(Cc1ccccc1)NS(=O)(=O)c1ccc2c(c1)c(=O)n(C)c(=O)n2C (stereo not shown)	-17
COc1ccc(CNC(=O)COC(=O)c2n[nH]c3ccccc23)cc1OC	-29.9
COc1ccc(CCNC(=O)C2CC(=O)N(C3CCCCC3)C2)cc1OC (stereo not shown)	27.5
CC1(C)CC(O)CC(C)(C)N1CC(O)COCCOc1ccc(Br)cc1 (stereo not shown)	-42.4
COc1ccc(C2=NO[C@@H]3C(=O)N(Cc4ccccc4)C(=O)[C@H]23)cc1OC	-1.95
Cc1cc(C)c2cc(CNC3CCCC3)c(Cl)nc2c1	-23.3
COc1ccccc1CCNC1CCC(C(C)(C)C)CC1 (stereo not shown)	-32.6
CCNc1nc(NC(C)CC)nc(Oc2ccc(=O)[nH]n2)n1 (stereo not shown)	0.906
CN1CCN(CCC(=O)Nc2ccc(C3CCCC3)cc2)CC1.Cl	-55.1
O=C(COc1ccccc1)N=C1SC2CS(=O)(=O)CC2N1c1cccc(F)c1 (stereo not shown)	20.2
Cc1ccc(S(=O)(=O)N2CCN(C(=O)C(C)Cn3nc(C)c(C)c3C)CC2)cc1 (stereo not shown)	5.7
Cl.O=C(O)Cc1cnc[nH]1	39.6
CC(C)(C)N(Cc1cc2ccccc2[nH]c1=O)C(=O)c1ccco1	8.21
C/C(=N\Nc1ccc(F)cc1F)c1cccs1	40.9
[O-][n+]1c2ccccc2c2n1CCCN=C2c1ccc(Cl)cc1	-30
CCn1c(SCC(=O)NC2=NCCS2)nnc1C(C)NC(=O)c1ccccc1Br (stereo not shown)	14.6
COC(=O)C1=CN(Cc2ccccc2)C=C(C(=O)OC)C1c1ccc(O)c(OC)c1	-15.2
COC(=O)c1cc(S(=O)(=O)N(C)C2CCCCC2)cn1C	1.13
O=C(CC(C(=O)O)C1CCCO1)Nc1cccc(C(F)(F)F)c1 (stereo not shown)	5.84
Cc1ccc(S(=O)(=O)Cc2ccc(C(=O)N3CCN(c4ccccn4)CC3)o2)cc1	-8.71
COCCc1nc2ccc(C(=O)N3CCCCC3COC)cc2o1 (stereo not shown)	8.82
COc1cc(NC(=O)CCc2nnc3ccc(N4CCOCC4)nn23)cc(OC)c1OC	14.2
O=C(/C=C/c1cccc([N+](=O)[O-])c1)NC(=S)Nc1cccc(NC(=O)c2ccccc2Cl)c1	8.47
CC(Nc1nc(-c2ccc3c(c2)NC(=O)CO3)cs1)c1ccccc1 (stereo not shown)	11.5
O=C(CSc1nc2scc(-c3ccco3)c2c(=O)n1-c1ccccc1)NCC1CCCO1 (stereo not shown)	-32.7
